According to the supplement of paper PMC10126150:
Values marked as one replicate rest on one cluster of the flow cell; about a third of the high ones do not repeat.

Test system: ATP
Test: switch fluorescence ratio, 500 uM ATP over buffer (Cy3 cluster intensity, sum of 5 cycles each) (fold (ratio)); higher = stronger signal-on switching upon ATP binding; sequences stand for … in TCGTCGGCAGCGTCAGATGTGTATAAGAGACAGTTTTTTTTTTTTTTTTTTTTTTTTT…TC
Conditions: aptamer strand: ATP DNA aptamer (quencher-CACCTGGGGGAGTATTGCGGAGGAAGG + anchor), 100 nM annealed; ATP concentration: 500 uM; one replicate
Procedure, shortened: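 After annealing to 100 nM quencher-labelled ATP aptamer, Cy3-labelled switching-strand clusters on a modified Illumina MiSeq flow-cell were imaged in selection buffer. A second image followed after 15 min with 500 uM ATP at 22 °C, and five such buffer/ATP cycles were done, each separated by NaOH stripping and re-annealing. The fluorescence ratio, averaged per switch-domain sequence, is summed target-cycle over summed buffer-cycle Cy3 intensity per cluster, with clusters outside 100-1000 RFU excluded.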
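Also: ATP exposure 15 min at 22 °C before imaging.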

| Sequence | switch fluorescence ratio |
| --- | --- |
| CCTAGATATA | 1.01 |
| ATTGGTAGGT | 0.998 |
| GCCCCCTT | 1.03 |
| CCTCGACGGT | 1.2 |
| TTATTGACAA | 1 |
| AGGGGCGTTT | 0.958 |
| CTGCCGTCGA | 0.992 |
| AGTGGCCTC | 1 |
| TGTACGTTAG | 1.02 |
| AGCTGGGAAT | 0.99 |
| GGGTTTTCCT | 1.03 |
| ATTCATTGTT | 0.972 |
| GCTTTAAGTT | 0.986 |
| ACTCTATTA | 1.08 |
| GAATAATTCG | 1.04 |
| ACTGCTCTCG | 1.07 |
| AAACCTGATA | 1.02 |
| ACATGGGGT | 0.97 |
| CAAAAAGCTG | 0.9 |
| GACAACGGCT | 1.13 |
| GTTGCTAAGC | 0.949 |
| ACCGTGGTTT | 1.01 |
| TTGACTTCCT | 1.57 |

| Sequence | switch fluorescence ratio |
| --- | --- |
| CGGATCAAAA | 0.973 |
| TTTTACAACG | 1.05 |
| GGGAGTACTG | 1 |
| CTCTGATCTT | 1.01 |
| GAGAATCCC | 0.961 |
| TAAGACCATT | 1.14 |
| GCGGGGAAGG | 1.02 |
| TGATTTAGCA | 1.03 |
| CGACTTGTTG | 1.03 |
| GCCGTTGCAA | 1.14 |
| TACATTACCC | 1.32 |
| GAAATAACGT | 1.02 |
| TGGGCATTCA | 0.988 |
| CCTTCAATGT | 1.55 |
| CCGGTAGAAA | 1.05 |
| CACTAAATAT | 1.05 |
| CAGCCGATGA | 1.04 |
| GCGGGTTCGT | 0.966 |
| CCAGTGGAGC | 1.06 |
| ACGCGATGAT | 1.05 |
| CGTATGATCA | 1.01 |
| TAACCTTTT | 1.08 |
| GGAAAGCAGG | 1 |

| Sequence | switch fluorescence ratio |
| --- | --- |
| TGAAGTGTGT | 0.971 |
| GAGTATTTCG | 0.949 |
| GACCTTACAC | 1.39 |
| ACGGAGTTAA | 1.01 |
| GCCTATTGTA | 0.973 |
| CACAGGCGGA | 1.06 |
| CAGGTAGGTC | 1.05 |
| GTCGCGATTG | 1.04 |
| GATAAACGGA | 0.99 |
| CTATTAATCC | 0.983 |
| GGGAAGACAG | 0.981 |
| GACAGAAATG | 0.979 |
| CACTTGAATT | 0.995 |
| GTGGTAGATA | 1.01 |
| TCACAGCCGT | 1.05 |
| GTTGAACGTT | 0.995 |
| CCCCCGA | 1.01 |
| AGTGGGAGCT | 0.971 |
| TATCCCGCGG | 1.04 |
| AACGCTACGA | 1.68 |
| ATTCGGAGAC | 1.36 |
| CGACAAGTTA | 1.06 |
| GAATTCCTT | 1.01 |

| Sequence | switch fluorescence ratio |
| --- | --- |
| CCGCATTTAA | 4.2 |
| GGATGAACTA | 0.948 |
| CTTATAAAAT | 0.949 |
| TTTTAGGCTA | 0.941 |
| CGTGTAGGCA | 0.996 |
| AAACGAGATG | 1.04 |
| TGATAAGACA | 1.03 |
| TGTAGGGAGA | 0.947 |
| AGATTTTAAG | 0.976 |
| TTGGCGGAG | 1.08 |
| AATCAGAGGC | 1.02 |
| CAGGGGTGTT | 1.08 |
| TTGGGGAACT | 1.05 |
| CCCAGGAATT | 1.06 |
| AATGTCTGGT | 0.964 |
| CAGAAAGGGA | 1.03 |
| CGAGACGTTC | 0.974 |
| GCAGAGCTTT | 1 |
| CGGTTAGCGC | 0.956 |
| GATGCGTCTC | 0.987 |
| CACAAGCGTC | 1.06 |
| AGAGGGAGGT | 0.987 |
| TTGGCACTAT | 1.11 |

| Sequence | switch fluorescence ratio |
| --- | --- |
| CGATAGTCAT | 1.02 |
| GATTTCTTCT | 0.96 |
| TTAGCG | 0.917 |
| CTACATTGGG | 1.01 |
| GTTTATGT | 1 |
| AGGATGCAAC | 1.07 |
| ATAGGCCATC | 0.981 |
| CCATGGCCGT | 1.01 |
| ATAATTACGC | 1.03 |
| CCACAAAAAC | 1.04 |
| CACTCAGCAG | 2.02 |
| AGCGTCCGGT | 1.01 |
| CGGTAAACAA | 0.984 |
| GCCACTGTTG | 0.988 |
| CAGTCCGGTT | 1.02 |
| TATCGGACTT | 1.04 |
| GTAAGTACAG | 1.36 |
| AGCGAAGAAG | 0.992 |
| ATTTCTTCTC | 1.05 |
| ACTGAGTGTA | 1.03 |
| GGACTAGGCG | 1.04 |
| CGTAACGGAA | 1.01 |
| TCGGAGGT | 0.987 |

| Sequence | switch fluorescence ratio |
| --- | --- |
| CGGGATTGGA | 0.991 |
| TGTACGGCAG | 0.991 |
| TCTTGCAGAT | 1.01 |
| ACGCAGCAGT | 4.47 |
| TGTAATTCGA | 0.991 |
| ATAATAGGAC | 1.04 |
| AATATTCAGG | 1.01 |
| GCGAGTTTTA | 0.98 |
| GTTGTAAGGC | 1.05 |
| TTCTGTCGTA | 0.984 |
| AACGCCGAGC | 1.15 |
| CCTTTCATGT | 1.01 |
| ACAGGAAGAA | 1.11 |
| CCCGCTGAGT | 1.23 |
| CTATCATAA | 1.01 |
| TAAAAACG | 1.33 |
| GCTACGGTTG | 0.996 |
| ATCTAGTGTC | 0.961 |
| CAGGTCTACC | 0.995 |
| CTACCCGGAA | 1.93 |
| ATCATAGGCG | 0.947 |
| TATATCTGCT | 0.978 |
| TACGTTGGAA | 1.01 |

| Sequence | switch fluorescence ratio |
| --- | --- |
| CCTTTTAAGG | 1.02 |
| TATTCTTGAC | 0.954 |
| GTTCGCACCT | 1.22 |
| TTGGGCGCGT | 0.952 |
| ACCAAGTGCA | 0.976 |
| AGTAAGGTC | 0.974 |
| TCACCAGATC | 1.04 |
| AATTATACCT | 1.36 |
| ATAGGGTGTT | 1.03 |
| GCCTGAGA | 0.978 |
| ACTCCTTAGA | 1.1 |
| GCTCCATCGT | 1.02 |
| TGTGAGTAGC | 1.03 |
| AAGTCCAATA | 1.05 |
| TAAGCCCGCA | 1.08 |
| AGGGGCAGCC | 1.01 |
| AAGGCGAGAG | 1 |
| CTTCGGACGA | 1.08 |
| CATAGTGCCA | 1.01 |
| CGATGTGCTC | 1.08 |
